# Experimental data reported in the supplement of paper PMC8728848.
# The other results are listed elsewhere or left out.
# Columns and labels:
# Experiment in all cases: glycan array binding signal (z-score within array); higher = stronger binding
# Details in all cases: glycan notation: IUPAC condensed, linker removed
# [1] = target: Gal(b1-4)GlcNAc(b1-3)Gal(b1-4)GlcNAc(b1-2)[Gal(b1-4)GlcNAc(b1-3)Gal(b1-4)GlcNAc(b1-6)]Man(a1-6)[Gal(b1-4)GlcNAc(b1-3)Gal(b1-4)GlcNAc(b1-2)Man(a1-3)]Man(b1-4)GlcNAc(b1-4)GlcNAc
# In short: (§1)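 From the Consortium for Functional Glycomics database, 3228 arrays were curated, keeping only those whose protein sequence was available. Binding is given as a within-array Z-score averaged across arrays sharing a protein sequence and across linkers. Negative Z-scores can be read as non-binding.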
# [2] = target: Gal(b1-4)GlcNAc(b1-3)Gal(b1-4)GlcNAc(b1-2)[Gal(b1-4)GlcNAc(b1-3)Gal(b1-4)GlcNAc(b1-6)]Man(a1-6)[Gal(b1-4)GlcNAc(b1-3)Gal(b1-4)GlcNAc(b1-2)Man(a1-3)]Man(b1-4)GlcNAc(b1-4)[Fuc(a1-6)]GlcNAc
# In short: as §1
# [3] = target: Gal(b1-4)GlcNAc(b1-3)Gal(b1-4)GlcNAc(b1-3)Gal(b1-4)GlcNAc
# In short: as §1
# [4] = target: Gal(b1-4)GlcNAc(b1-3)Gal(b1-4)GlcNAc(b1-3)Gal(b1-4)GlcNAc(b1-2)Man(a1-3)[Gal(b1-4)GlcNAc(b1-3)Gal(b1-4)GlcNAc(b1-3)Gal(b1-4)GlcNAc(b1-2)Man(a1-6)]Man(b1-4)GlcNAc(b1-4)GlcNAc
# In short: as §1
# [5] = target: Gal(b1-4)GlcNAc(b1-3)Gal(b1-4)GlcNAc(b1-3)Gal(b1-4)GlcNAc(b1-2)Man(a1-3)[Gal(b1-4)GlcNAc(b1-3)Gal(b1-4)GlcNAc(b1-3)Gal(b1-4)GlcNAc(b1-2)Man(a1-6)]Man(b1-4)GlcNAc(b1-4)[Fuc(a1-6)]GlcNAc
# In short: as §1
# [6] = target: Gal(b1-4)GlcNAc(b1-3)Gal(b1-4)GlcNAc(b1-3)Gal(b1-4)GlcNAc(b1-2)[Gal(b1-4)GlcNAc(b1-3)Gal(b1-4)GlcNAc(b1-3)Gal(b1-4)GlcNAc(b1-6)]Man(a1-6)[Gal(b1-4)GlcNAc(b1-3)Gal(b1-4)GlcNAc(b1-3)Gal(b1-4)GlcNAc(b1-2)Man(a1-3)]Man(b1-4)GlcNAc(b1-4)[Fuc(a1-6)]GlcNAc
# In short: as §1
# [7] = target: Gal(b1-4)GlcNAc(b1-3)Gal(b1-4)GlcNAc(b1-3)Gal(b1-4)GlcNAc(b1-3)Gal(b1-4)GlcNAc(b1-2)Man(a1-3)[Gal(b1-4)GlcNAc(b1-3)Gal(b1-4)GlcNAc(b1-3)Gal(b1-4)GlcNAc(b1-3)Gal(b1-4)GlcNAc(b1-2)Man(a1-6)]Man(b1-4)GlcNAc(b1-4)GlcNAc
# In short: as §1
# [8] = target: Gal(b1-4)GlcNAc(b1-3)Gal(b1-4)GlcNAc(b1-3)Gal(b1-4)GlcNAc(b1-3)Gal(b1-4)GlcNAc(b1-2)Man(a1-3)[Gal(b1-4)GlcNAc(b1-3)Gal(b1-4)GlcNAc(b1-3)Gal(b1-4)GlcNAc(b1-3)Gal(b1-4)GlcNAc(b1-2)Man(a1-6)]Man(b1-4)GlcNAc(b1-4)[Fuc(a1-6)]GlcNAc
# In short: as §1
# [9] = target: Gal(b1-4)GlcNAc(b1-3)Gal(b1-4)GlcNAc(b1-3)Gal(b1-4)GlcNAc(b1-3)Gal(b1-4)GlcNAc(b1-2)[Gal(b1-4)GlcNAc(b1-3)Gal(b1-4)GlcNAc(b1-3)Gal(b1-4)GlcNAc(b1-3)Gal(b1-4)GlcNAc(b1-6)]Man(a1-6)[Gal(b1-4)GlcNAc(b1-3)Gal(b1-4)GlcNAc(b1-3)Gal(b1-4)GlcNAc(b1-3)Gal(b1-4)GlcNAc(b1-2)Man(a1-3)]Man(b1-4)GlcNAc(b1-4)[Fuc(a1-6)]GlcNAc
# In short: as §1
# [10] = target: Gal(b1-4)GlcNAc(b1-3)Gal(b1-4)GlcNAc(b1-3)Gal(b1-4)GlcNAc(b1-3)Gal(b1-4)GlcNAc(b1-3)Gal(b1-4)GlcNAc(b1-2)Man(a1-3)[Gal(b1-4)GlcNAc(b1-3)Gal(b1-4)GlcNAc(b1-3)Gal(b1-4)GlcNAc(b1-3)Gal(b1-4)GlcNAc(b1-3)Gal(b1-4)GlcNAc(b1-2)Man(a1-6)]Man(b1-4)GlcNAc(b1-4)GlcNAc
# In short: as §1
# [11] = target: Gal(b1-4)GlcNAc(b1-3)Gal(b1-4)GlcNAc(b1-3)Gal(b1-4)GlcNAc(b1-3)Gal(b1-4)GlcNAc(b1-3)Gal(b1-4)GlcNAc(b1-2)Man(a1-3)[Gal(b1-4)GlcNAc(b1-3)Gal(b1-4)GlcNAc(b1-3)Gal(b1-4)GlcNAc(b1-3)Gal(b1-4)GlcNAc(b1-3)Gal(b1-4)GlcNAc(b1-2)Man(a1-6)]Man(b1-4)GlcNAc(b1-4)[Fuc(a1-6)]GlcNAc
# In short: as §1
# [12] = target: Gal(b1-4)GlcNAc(b1-3)Gal(b1-4)GlcNAc(b1-3)Gal(b1-4)GlcNAc(b1-3)Gal(b1-4)GlcNAc(b1-3)Gal(b1-4)GlcNAc(b1-2)[Gal(b1-4)GlcNAc(b1-3)Gal(b1-4)GlcNAc(b1-3)Gal(b1-4)GlcNAc(b1-3)Gal(b1-4)GlcNAc(b1-3)Gal(b1-4)GlcNAc(b1-6)]Man(a1-6)[Gal(b1-4)GlcNAc(b1-3)Gal(b1-4)GlcNAc(b1-3)Gal(b1-4)GlcNAc(b1-3)Gal(b1-4)GlcNAc(b1-3)Gal(b1-4)GlcNAc(b1-2)Man(a1-3)]Man(b1-4)GlcNAc(b1-4)[Fuc(a1-6)]GlcNAc
# In short: as §1
# [13] = target: Gal(b1-4)GlcNAc(b1-3)Gal(b1-4)GlcNAc(b1-3)Gal(b1-4)GlcNAc(b1-3)Gal(b1-4)GlcNAc(b1-3)Gal(b1-4)GlcNAc(b1-3)Gal(b1-4)GlcNAc(b1-2)Man(a1-3)[Gal(b1-4)GlcNAc(b1-3)Gal(b1-4)GlcNAc(b1-3)Gal(b1-4)GlcNAc(b1-3)Gal(b1-4)GlcNAc(b1-3)Gal(b1-4)GlcNAc(b1-3)Gal(b1-4)GlcNAc(b1-2)Man(a1-6)]Man(b1-4)GlcNAc(b1-4)GlcNAc
# In short: as §1
# [14] = target: Gal(b1-4)GlcNAc(b1-3)Gal(b1-4)GlcNAc(b1-3)GalNAc
# In short: as §1
# [15] = target: Gal(b1-4)GlcNAc(b1-3)Gal(b1-4)GlcNAc(b1-3)[Gal(b1-4)GlcNAc(b1-3)Gal(b1-4)GlcNAc(b1-6)]GalNAc
# In short: as §1
# [16] = target: Gal(b1-4)GlcNAc(b1-3)Gal(b1-4)GlcNAc(b1-6)[Gal(b1-3)]GalNAc
# In short: as §1
# [17] = target: Gal(b1-4)GlcNAc(b1-3)Gal(b1-4)[Fuc(a1-3)]GlcNAc(b1-3)Gal(b1-4)[Fuc(a1-3)]GlcNAc
# In short: as §1
# [18] = target: Gal(b1-4)GlcNAc(b1-3)GalNAc
# In short: as §1
# [19] = target: Gal(b1-4)GlcNAc(b1-3)[Fuc(a1-3)GlcNAc(b1-6)]Gal(b1-4)Glc
# In short: as §1
# [20] = target: Gal(b1-4)GlcNAc(b1-3)[Gal(b1-4)GlcNAc(b1-6)]Gal(b1-4)GlcNAc
# In short: as §1
# [21] = target: Gal(b1-4)GlcNAc(b1-3)[GlcNAc(b1-6)]Gal(b1-4)GlcNAc
# In short: as §1
# [22] = target: Gal(b1-4)GlcNAc(b1-6)Gal(b1-4)GlcNAc
# In short: as §1
# [23] = target: Gal(b1-4)GlcNAc(b1-6)GalNAc
# In short: as §1
# [24] = target: Gal(b1-4)GlcNAc(b1-6)[Gal(b1-3)]GalNAc
# In short: as §1
# [25] = target: Gal(b1-4)GlcNAc(b1-6)[Gal(b1-4)GlcNAc(b1-3)]GalNAc
# In short: as §1
# Gal(b1-4)GlcNAc6P = target: Gal(b1-4)GlcNAc6P
# In short: as §1
# Gal(b1-6)Gal = target: Gal(b1-6)Gal
# In short: as §1
# Gal3S(b1-3)GalNAc = target: Gal3S(b1-3)GalNAc
# In short: as §1
# Gal3S(b1-3)GlcNAc = target: Gal3S(b1-3)GlcNAc
# In short: as §1
# [26] = target: Gal3S(b1-3)[Fuc(a1-4)]GlcNAc
# In short: as §1
# Gal3S(b1-4)Glc = target: Gal3S(b1-4)Glc
# In short: as §1
# Gal3S(b1-4)Glc6S = target: Gal3S(b1-4)Glc6S
# In short: as §1
# Gal3S(b1-4)GlcNAc = target: Gal3S(b1-4)GlcNAc
# In short: as §1
# [27] = target: Gal3S(b1-4)[Fuc(a1-3)]Glc6S
# In short: as §1
# [28] = target: Gal3S(b1-4)[Fuc(a1-3)]GlcNAc
# In short: as §1
# [29] = target: Gal3S(b1-4)[Fuc(a1-3)]GlcNAc6S
# In short: as §1
# Gal3S4S(b1-4)GlcNAc = target: Gal3S4S(b1-4)GlcNAc
# In short: as §1
binder,measurement,setting,value
LecRKVI.2 (protein) RTTTNFAFRGFNGNQSKIRIEGAAMIKPDGLLRLTDRKSNVTGTAFYHKPVRLLNRNSTNVTIRSFSTSFVFVIIPSSSSNKGFGFTFTLSPTPYRLNAGSAQYLGVFNKENNGDPRNHVFAVEFDTVQGSRDDNTDRIGNDIGLNYNSRTSDLQEPVVYYNNDDHNKKEDFQLESGNPIQALLEYDGATQMLNVTVYPARLGFKPTKPLISQHVPKLLEIVQEEMYVGFTASTGKGQSSAHYVMGWSFSSGGERPIADVLILSELPPPPPNKAKKEGLNS,glycan array binding signal (z-score),[1],1.75
same,glycan array binding signal (z-score),[2],1.54
same,glycan array binding signal (z-score),[3],-0.203
same,glycan array binding signal (z-score),[4],6.91
same,glycan array binding signal (z-score),[5],1.62
same,glycan array binding signal (z-score),[6],1.51
same,glycan array binding signal (z-score),[7],0.16
same,glycan array binding signal (z-score),[8],0.041
same,glycan array binding signal (z-score),[9],2.11
same,glycan array binding signal (z-score),[10],-0.228
same,glycan array binding signal (z-score),[11],2.46
same,glycan array binding signal (z-score),[12],0.566
same,glycan array binding signal (z-score),[13],0.722
same,glycan array binding signal (z-score),[14],0.017
same,glycan array binding signal (z-score),[15],0.089
same,glycan array binding signal (z-score),[16],1.65
same,glycan array binding signal (z-score),[17],-0.313
same,glycan array binding signal (z-score),[18],-0.373
same,glycan array binding signal (z-score),[19],-0.377
same,glycan array binding signal (z-score),[20],1.36
same,glycan array binding signal (z-score),[21],-0.347
same,glycan array binding signal (z-score),[22],-0.431
same,glycan array binding signal (z-score),[23],1.62
same,glycan array binding signal (z-score),[24],1.83
same,glycan array binding signal (z-score),[25],-0.085
same,glycan array binding signal (z-score),Gal(b1-4)GlcNAc6P,-0.382
same,glycan array binding signal (z-score),Gal(b1-6)Gal,-0.387
same,glycan array binding signal (z-score),Gal3S(b1-3)GalNAc,-0.198
same,glycan array binding signal (z-score),Gal3S(b1-3)GlcNAc,-0.231
same,glycan array binding signal (z-score),[26],-0.225
same,glycan array binding signal (z-score),Gal3S(b1-4)Glc,-0.237
same,glycan array binding signal (z-score),Gal3S(b1-4)Glc6S,-0.285
same,glycan array binding signal (z-score),Gal3S(b1-4)GlcNAc,-0.354
same,glycan array binding signal (z-score),[27],1.27
same,glycan array binding signal (z-score),[28],-0.386
same,glycan array binding signal (z-score),[29],-0.29
same,glycan array binding signal (z-score),Gal3S4S(b1-4)GlcNAc,-0.399
